Reference: paper PMC10726135
This is one part of the list. At the low end of the ranking the order means little. Measured with an extract: partners may take part in the binding.

biological target: T1, HNF4alpha2 (COS-7 nuclear extract) (UniProt P41235); assay: protein-binding microarray; conditions: COS-7 nuclear extract on double-stranded Agilent 4x180k PBM; binding buffer, salt, pH and temperature not given; high values mean tight binding; double strand, one strand shown; sequences stand for … in …GCCTAGGGAGATTAGAGTATCGGTCGA
T1 sequence: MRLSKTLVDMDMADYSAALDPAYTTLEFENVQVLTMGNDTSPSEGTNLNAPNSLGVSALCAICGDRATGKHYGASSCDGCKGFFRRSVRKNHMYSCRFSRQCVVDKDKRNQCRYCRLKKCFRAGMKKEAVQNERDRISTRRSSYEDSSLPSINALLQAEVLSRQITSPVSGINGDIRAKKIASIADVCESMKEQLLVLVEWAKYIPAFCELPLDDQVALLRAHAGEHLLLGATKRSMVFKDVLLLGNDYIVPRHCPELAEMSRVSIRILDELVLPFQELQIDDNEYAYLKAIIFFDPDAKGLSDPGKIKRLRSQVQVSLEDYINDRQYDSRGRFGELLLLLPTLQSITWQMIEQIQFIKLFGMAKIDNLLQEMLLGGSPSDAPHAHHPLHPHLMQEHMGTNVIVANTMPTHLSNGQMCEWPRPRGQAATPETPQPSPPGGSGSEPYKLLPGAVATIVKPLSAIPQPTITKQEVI

Row | Sequence | binding signal (log2 normalized intensity)
1 | ATAAGCTCTGCGCCCTTGGAATATCCTGCC | -1.09
2 | CCGCTTGGCCCTCTTCCAAGTGTTCTTTAC | 1.87
3 | AAGTTCAGTCGAATTTGGTTACTCGCCTTA | -1.2
4 | CCTCATGCCTTATCTACATAGTCCCTGCAC | 0.727
5 | TAGAAGTACTAGATTTGGAACTCAGAGTTT | 0.363
6 | TAAACCCCTGGAGCACAGAAGGAGGGCGGG | -1.08
7 | CAGTCAATTACATGGCAGATGTCTGTGTTC | 1.87
8 | TGCATATCAGCATGGCTGCAGAGAACAGCA | -1.21
9 | TGGGGAGGTTTGGCTGAGAGGGATAAAAGG | -1.07
10 | TGGGGGCCACGCACACCTGGATCTTCCAGG | -1.15
11 | TGCAACAGTGACCCAAATATGGTCCCTGAC | -1.13
12 | TCACATACTGTGGACATAAAAAGATAATGC | -1.07
13 | GATCACTGCCTTGGAGGCACTCCCAGGATA | -1.1
14 | TTGACGCCACCTGAAGGCAGGTGTGGGTTG | 1.41
15 | CATCAGATCTGGGTGTGCCATTCTTCCAGT | 0.748
16 | GATGAGGCACCAACACTTCCCAATCAGAAA | -1.22
17 | CCACGGCAACCTTCCTGGAAACCTTCTCTG | -0.777
18 | CCAACAGGTGAAGACATGCTGGTGTGTGAT | 1.54
19 | TGTCCACCAAGGAGGTGCTGACAGGCCCTC | -1.17
20 | CCATAGAGTCCACCACTGACCTTAGACCCT | 5.78
21 | GCCTCTTTATCTCCTCCCCTTGAGACTTTA | 2.85
22 | ACAGGGCAAGGAACGGAATGTGTGATAAGG | 0.42
23 | CTAGGCAGTCCACAGACAAAGGCCCGCTGC | -1.1
24 | CCGCGCCCAGCGGTTCCGGGCGGCAGCACA | -1.2
25 | TGCATTGTGGTATTCATTCAACTTTGACTT | 2.12

Row | Sequence | binding signal (log2 normalized intensity)
26 | AATTCATGACTCTCTTATAGGTGTTTATAA | 1.54
27 | GATGGCCCTCTCCAAGGCGGTGTGGAGGTC | 1.52
28 | TCCTAGACCTTTGACCTTTATACCTGTACG | 5.75
29 | CTGGACTTTGGCTGCAAAATTTGAACAAAA | 1.55
30 | CATCTTTGAAGAGCACAGGGTCAGCAGATC | 1.17
31 | TCATCACTTAGGATATTCCAAGGGGTTAGA | 1
32 | CCAAGCCCCAAAAACTTGGACTCTATAGCC | 3.44
33 | CCTTGCCCCACCCCCCACCCCAGAAGTATG | 6.2
34 | CCAATTATTGCGAGTTTAGGAGGGTTCCTG | 0.274
35 | CCAAAGGTCATCTGTCACTCTAGATAAAGA | 1.51
36 | TATGCCACAGGGCAAGACACCAAAGGTCAC | 4.33
37 | CCAGTGGCCCCTGAGCACTGTCTCAGGGTC | 1.27
38 | TTTGGGGAAGGATAAAATGAAATCGCCTGA | -0.952
39 | ATCCTTCAACAATTCTATGAGTAGGTACAA | 1.06
40 | CTTAAAGTGTAAATATTTGAGGACACAAAG | 1.18
41 | CAGCAAAAATAGCCAAAATAAAGCAGCAAA | -1.11
42 | AGGAAGCTCCAGCGGGGTTTGAATCCCGGG | -1.19
43 | CCCAAGTGCTCCTCCCCATCTCAGCCTCTC | 2.14
44 | AGATGTCACAGGCAAGCAAGTGACATGTTG | -1.13
45 | CTGCCGCGCCACTGCGTCCAGCCACAATTA | -1.09
46 | ATGAAAGGTCCTTGAAAGTAAGCAGACACT | -1.07
47 | TGCAGCTGGGAGATAAGATAGCACCAGCCC | -1.14
48 | CACATTCACACAATCAGTGTGTTGACATTT | 1.55
49 | TATCTAGGATGAGAATCCACCTGCCTGCTT | -1.08
50 | ACATGACCTTTGTCCGTTCCTGCCTGGAGC | 4.82

Row | Sequence | binding signal (log2 normalized intensity)
51 | GTCCTCACAATAATGAGAAACGCCTGATAT | -1.16
52 | AAATGGTGCAGCTGCTGAAACATTCAACTG | -1.13
53 | CAGGGATCCCTGCAGCCCACAGCCCGCTGT | -0.97
54 | GAGGAAAACCAGCTCAGTGGAAATTGTCCT | -0.386
55 | GTAAAGGAGATTATCTAGACAAATTTGTTT | 0.132
56 | GAAAGATTAAGAGGCTACAACCAGACTTGG | -1.18
57 | AACAGAGCCCAAGGCAAAGCAGATGTGCTA | -1.11
58 | TCAGGAATGTGACCCCTTTCATGAATAAAT | 2.48
59 | TGTGACTTTTATCTTAGGTAATAAGCCTGA | 1.2
60 | ACAATCTAAAAATGTTGAACTCACAAAAGT | 0.91
61 | CCTGAAGGGTGTTGTGGAATGTGCTTGGAC | 1.94
62 | GCCACTGCAGGGAGGACAGACTCTGGGAGA | -1.16
63 | TGGACTGGGGACCTGGTCTGAGATATCTTT | 0.741
64 | AGCCCCAACCCACTGTTGCCCCTTCCAAAG | 4.68
65 | CAGCTGTCTATCCTTATTTATCTTCCAGCG | 0.943
66 | CCCACGTACATTGCACCCTCCAGGAGCCCC | 2.07
67 | GGCACTGCTCCCTGCCCCTACCCCCACCCT | 5.65
68 | AAACTCCTTCAGTTCTTATCTCGTACTTCT | 1.16
69 | TACATTCCAAATACGATAATGTCAAACATC | -0.408
70 | GAGGACAACCAGAGGTCACTTTTATCACCA | 1.2
71 | ACCAAAGGAGTCCTGGCTGACAGATACCGT | -1.1
72 | AGGGTTACAAACTTCAAGGTCCATTTGAGG | 0.52
73 | CTTTAGCACCTTCATCCAAAGATGACCTTT | 7.62
74 | CATTATTAGCAGCAGGTTATCTAATGGAGA | 0.864
75 | GAACCTGCCCTCTGTCCCATGGTGTACAAG | 1.26

Row | Sequence | binding signal (log2 normalized intensity)
76 | TAGGCAAAAGACAGTGATTGTCACAAGACT | -1.12
77 | ACACTTGCCCTTTGCCCTCACTGGTAGAAG | 5.09
78 | CCTGCAAGGACAAAGGTCATGTTTTCAAAC | 5.78
79 | TTTTATGTTAAGATCAAACAGGGACAGATG | 0.58
80 | TCTGACCTTTGTCTCCAGGCAAACTACAGT | 3.31
81 | CTCTGGGACCGCAGGGGGCTCCCGGACCCT | 0.781
82 | TTATGTACTTAGTGTTTTATGTGTATTTAC | 1.94
83 | ATGAAAGAGACTAGTATGTAAATAAGAGCT | -1.23
84 | CTAAGGGGGAAAGTCCACGTGAGAGGGTCG | 2.39
85 | TGGCTGAGAGGGATAAAAGGGGAAAAGGTC | 2.07
86 | CACTCTGGTGCCCTCTGAGTGTTTGACCTT | 5.15
87 | GGAAGGTGGGGGAGGAGACAGCTACGGAAT | -1.2
88 | CTCCCGGGCGCTGTCCGCCGCCTCGTGGTG | -1.17
89 | AAGACCTCGGCCTCATGGGCGATCCCGAAA | -1.05
90 | CCTCTGCAGCCGCCCTTTTGCCTCCGCTCC | 1.04
91 | CACTAGGAGGAGGTCAAAGTGCAACTACAA | 5.7
92 | ATAAAATAGCTGCCTGTGTGTTCTGCTATT | 1.12
93 | TACAGTGCCATTTATCAGTGATTTCTCTTC | 0.503
94 | ACAGACTTCACACTAGAAGACTCATCTCAG | -1.12
95 | ACCCTGTTGGTTTCTGGGATTTGTACAAGT | 1.91
96 | ACCTGATGTTTGGACAGTGTGACTCATCAA | 1.29
97 | AGACCCTTATCAGTAGTTCTCCTTTCTGCC | 1.39
98 | TTAAAGGCAAAGTCCAGAACCTGGAACCTA | 2.15
99 | ACCCATTATGGCCACTGTGTGTGTGTGTGT | 3.08
100 | CCTGTCTCATCCTGTGACCAAGAATGCCTA | -0.866

Row | Sequence | binding signal (log2 normalized intensity)
101 | TCCTAAGGCCTTCAACTGATAAGAAGGGGC | -1.04
102 | CACCGTAAATCACATTGTTAGCAGAAACCA | -0.708
103 | GTGAGAAACATCCTGCCTAACCACCTGACC | -1.11
104 | AAAGGGGCTAGGGCAAAGATCAAACATACA | 1.04
105 | ATAAGCCACGAGCCTGCCTGCTCCTCCTCG | -1.21
106 | TCTTATCTCACTGGATGTGTACCTCATCTT | 1.24
107 | AGAACATTGCAGTGGCTCAGAGGTTATCTC | 0.737
108 | GACAAGGCTCTGGTGGGGAATGCTAGGACT | -1.04
109 | AGCAAAGTTCAGAGAGGAATCGGCAGTTTG | -1.07
110 | TAGACCTAGATAAGGGAGATGAAAGGGGCC | -1.22
111 | TGCTGGTTTACAACATTCCTTTGTATTTTT | 1.51
112 | GTGTGTGGTGTGTGTGTGTGTGTTTTGTGC | 3.05
113 | GGGGCATCCCTCGTAGGCAGGGCCAGATAA | -1.18
114 | CTGATTCTGATTAGGTGGATTCGCCCAGCA | -1.14
115 | AGTGGCTCCTAGAATTATCCCACCCCCAAT | 4.42
116 | AAAAACAGGTTCTGCAACACTTTCTAAGGA | -1.1
117 | TGGAATGTCAAGATTGAGACATTCATGGCT | -0.938
118 | CATTCAACTGACACTTGTTTGAATTGTGAT | 1.87
119 | AAAGGTCATCGCACCGGCAGGGGAGAACTT | 0.284
120 | TTGCTCAACCTGGACCTCATTAATAGGGCA | 0.548
121 | TTTCTGGGACCAAGGGTCAGTTCATTAAAA | 2.22
122 | AGTGAGGGACAAGGCTGTCCCCCATCTCAT | 1.44
123 | GACTCAGAAAAATATGTGGACTTCAAAGGT | 1.29
124 | AAGCTTGCTGATTACATAGGAGGCTGCCTC | -1.12
125 | CCTCCATGGCCTGGGGCCCTACCTGCACTT | -1.04

Row | Sequence | binding signal (log2 normalized intensity)
126 | GCATAGGAAGTGGGGAAGAAGTGTTCCCCT | 0.808
127 | CCGAATGTCCAGACTGTGCATACCAAGAAC | -1.2
128 | ACATTCCCTTCTTAGGGCAACATTCTTATC | 1.29
129 | TCCTTATCTGTAGAAGGCAAAGCTTGGCCA | -0.441
130 | ATTTGGAAAACATCATTCCGTGACTGAGCT | -1.22
131 | CGATAAGGAGGAAGGACACTTAGAGATAAG | -1.21
132 | CTGGCCTCTGTGAAGTGGAGATAATAGGAG | -0.433
133 | AAAAAAAGAACACAGTGTAGAAGGCAAGGG | -1.03
134 | TCATGAGTAGAGAGCAATCATGGGCCCACA | -1.15
135 | AGAATGTGGCCATTTTACTTGTCAAGGATC | 0.509
136 | TACAGGCGTGAGCCACCGCGCCCCGCCCCC | 5.74
137 | CCTTTGGGAGCAGTGGGCATATCTTTTTAT | 1.56
138 | ACTGAAAGGGAACCCTAATCCACATGCTAT | -1.11
139 | ATCCCCGCCCCCAACGGGCCACGCCCTGCA | 4.37
140 | GCCTGGACCTTGGAATGTCAAGATTGAGAC | 1.67
141 | CACTCATCCCTTGCACTGCTCAGGGTGGGG | -0.0659
142 | TAACCATGGGGGCTCAGGGCCTCTCTTCTT | -1.13
143 | CTTCCATATAACCCTTGAACCTTCTTCTTG | 3.99
144 | TAGCTCATTAAGCTTAGCGTTATCAAACCA | -0.905
145 | CCTCTCCTCCATGGCCTGGGGCCCTACCTG | -1.13
